# Test results as given in the antibiotic and cytotoxicity screens of Wong et al. (2023).
# This is one part of the list.
# Key:
# [1] = test system: HSkMC (human skeletal muscle cells); assay: cytotoxicity call (relative viability < 0.9); conditions: 10 µM
# [2] = test system: HepG2; assay: cytotoxicity call (relative viability < 0.9); conditions: 10 µM
# [3] = test system: S. aureus RN4220; assay: growth inhibition call (relative growth <= 0.2); conditions: 50 µM
SMILES,cytotoxicity call [1],cytotoxicity call [2],growth inhibition call [3]
CCCN1C[C@H](C(=O)O)CCC1=O,inactive,inactive,inactive
COc1ccc2c3c(n(c2c1)C)[C@H](CO)N(CC1CC1)C[C@]13CCN(CC1)S(=O)(=O)c1cn(cn1)C,inactive,inactive,inactive
COCCNC(=O)C[C@@H]1CC[C@H](NS(=O)(=O)c2ccc(C)cc2)[C@H](CO)O1,inactive,inactive,inactive
C[C@H](CO)N1C[C@H](C)[C@H](CN(C)C(=O)Nc2cccc3ccccc23)Oc2ccc(NC(=O)CCCCCC(=O)Nc3ccccc3N)cc2CC1=O,inactive,inactive,inactive
C[C@@H]1CN([C@@H](C)CO)C(=O)c2c(c3ccccc3n2C)-c2ccccc2CO[C@@H]1CN(C)S(C)(=O)=O,inactive,inactive,inactive
C[C@H]1CN([C@@H](C)CO)S(=O)(=O)c2ccc(/C=C/c3ccccc3)cc2O[C@H]1CN(C)C(=O)Nc1cc(F)ccc1F,inactive,inactive,inactive
COc1ccc(CN(C)C[C@H]2OCCCC[C@H](C)Oc3ccc(NC(=O)c4ccccc4)cc3C(=O)N([C@@H](C)CO)C[C@@H]2C)cc1,inactive,inactive,inactive
CCCNC(=O)N1C[C@H](O)COC[C@@H]2O[C@@H](CC(=O)N3CCOCC3)CC[C@H]21,inactive,inactive,inactive
CCCCC(=O)OC1(C(=O)CO)CCC2C3CCC4=CC(=O)CCC4(C)C3C(O)CC21C (stereo not drawn),inactive,inactive,inactive
O=C(C1=C[C@H](c2ccc3c(c2)Cc2ccccc2-3)C[C@H](OCc2ccc(CO)cc2)O1)N1CCN(Cc2ccc3c(c2)OCO3)CC1,inactive,inactive,inactive
CC1=CC(C)(C)N(C(=O)Nc2ccc(C)cc2)c2ccccc21,inactive,inactive,inactive
C[C@@H]1CN([C@H](C)CO)C(=O)c2cc(NS(=O)(=O)c3ccccc3)ccc2O[C@@H](C)CCCCO[C@@H]1CN(C)C(=O)CCC(F)(F)F,inactive,inactive,inactive
C[C@@H]1CN([C@@H](C)CO)C(=O)c2cc(NS(C)(=O)=O)ccc2O[C@H]1CN(C)C(=O)Nc1ccccc1,inactive,inactive,inactive
C[C@@H]1O[C@H]2Oc3c(-c4ccc(O)c(O)c4)oc4cc(O)c(c(O)c4c3=O)-c3cc(ccc3O)/C=C\C(=O)OC[C@H]3O[C@@H](O[C@H]([C@H]1O)[C@H]2O)[C@H](O)[C@@H](O)[C@@H]3O,inactive,inactive,inactive
CC(C)CSc1ncnc2scc(-c3ccccc3)c12,inactive,inactive,inactive
N[C@@H](Cc1ccc(F)cc1)C(=O)O,inactive,inactive,inactive

SMILES,cytotoxicity call [1],cytotoxicity call [2],growth inhibition call [3]
COc1ccc2c3c(n(c2c1)C)[C@@H](CO)N(C[C@]13CCN(CC1)C(=O)c1ccncc1)C(=O)c1cnccn1,inactive,inactive,inactive
C[C@@H]1CN([C@@H](C)CO)C(=O)CCCn2cc(nn2)CO[C@@H]1CN(C)C(=O)Nc1ccc2c(c1)OCCO2,inactive,inactive,inactive
C[C@H]1CCCCO[C@H](CN(C)C(=O)C2CCCCC2)[C@@H](C)CN([C@@H](C)CO)C(=O)c2cc(NS(=O)(=O)c3ccccc3)ccc2O1,inactive,inactive,inactive
O=C(NC[C@@H](O)CO)[C@]1(Cc2ccccc2)N=C(c2ccc(OCCCO)cc2)O[C@@H]1c1ccccc1,inactive,inactive,inactive
CN(C)c1nc(N(C)C)nc(N(C)C)n1,inactive,inactive,inactive
C[C@@H]1CCCCO[C@@H](CN(C)C)[C@H](C)CN([C@H](C)CO)C(=O)c2cc(NS(=O)(=O)c3cn(C)cn3)ccc2O1,inactive,inactive,inactive
O=C(C[C@@H]1CC[C@H]2[C@@H](COC[C@@H](O)CN2S(=O)(=O)c2cccc(Cl)c2)O1)NCc1ccncn1,inactive,inactive,inactive
CC(C)CCC[C@@H](C)[C@H]1CC[C@@]2(C)C3=C(CC[C@]12C)[C@@]1(C)CC[C@H](OC(=O)CCl)C(C)(C)[C@@H]1CC3,inactive,inactive,inactive
C[C@H](CO)N1C[C@H](C)[C@@H](CN(C)S(=O)(=O)c2ccccc2)Oc2ccc(NC(=O)Cc3ccccc3)cc2C1=O,inactive,inactive,inactive
CC(=O)OCC(=O)C1(O)CCC2C3CCC4=CC(=O)CCC4(C)C3(F)C(O)CC21C (stereo not drawn),inactive,inactive,inactive
CO[C@@]12[C@@H]3N[C@@H]3CN1C1=C(C(=O)C(N)=C(C)C1=O)[C@@H]2COC(N)=O,active,active,active
C[C@@H]1CN([C@H](C)CO)S(=O)(=O)c2ccc(C#CC3CC3)cc2O[C@@H]1CN(C)Cc1cccc(F)c1,inactive,inactive,inactive
CC#CC[C@@H](C)[C@H](O)/C=C/[C@@H]1[C@H]2C/C(=C/CCCC(=O)O)C[C@H]2C[C@H]1O,inactive,inactive,inactive
C[C@@H]1CN([C@H](C)CO)S(=O)(=O)c2ccc(-c3cncnc3)cc2O[C@@H]1CN(C)C(=O)NC1CCCC1,inactive,inactive,inactive
C[C@H]1CN([C@@H](C)CO)C(=O)Cc2cc(NC(=O)CCC(F)(F)F)ccc2O[C@@H]1CN(C)Cc1ccc(C(=O)Nc2ccccc2N)cc1,inactive,inactive,inactive
